# Laboratory results reported in patent US20220348632A1 (Novartis, published 2022).
# Values joined by “and” are separate entries in the source; they are usually repeats but may differ in a detail not shown here. Equal values may be shown once.
# Experiments:
# [1] = biological target: T1, cynomolgus MICB*05 over-expressed on CT26.WT cells (cynomolgus); assay: flow cytometry titration of HH8 on 293FT cells over-expressing cyMICB*05; fluorescent secondary antibody, fluorescence intensity
# T1 construct: whole, on cells; also called cyMICB*05; cyMICB05
# Method: (§1) 6e6 293FT cells (Invitrogen) were plated into a 10 cm dish with 10 mL cD10, then 3 hours later media was changed to 5 mL pre-warmed Opti-MEM1. Cells were transfected 4 hours after OptiMem-1 addition using lipofectamine-2000 according to manufacturers instructions with DNA plasmids encoding for the indicated ligands. After overnight incubation, the cells were harvested with two sequential washes of 5 mL PBS+2 mM EDTA. Cells were counted on a Nexcelom Cell Counter, and 100e3 cells were resuspended in PBS+2 mM EDTA+2% Fetal Bovine Serum (FACS Buffer) with 10 ug/mL HH8 or 10 ug/mL Human IgG1 Isotype. Cells were stained for 15 minutes at 4 degrees, then washed once in 200 uL FACS Buffer, and stained with a secondary antibody, Alexa488-labeled goat anti-huIgG (A11013, Thermo Fisher) for 15 minutes at 4 degrees. Cells were then washed once in 200 uL FACS Buffer, resuspended in 100 uL FACS Buffer and fixed with an additional 100 uL of IC Fixation Buffer (eBioscience) before running on a BD Fortessa and analyzing in Flowjo (see, e.g., FIGS. 12A-12B).
# [2] = biological target: T2, cynomolgus MICA*08 over-expressed on CT26.WT cells (cynomolgus); assay: flow cytometry titration of HH8 on 293FT cells over-expressing cyMICA*08; fluorescent secondary antibody, fluorescence intensity
# T2 construct: whole, on cells; also called cyMICA*08; cyMICA08
# Method: as §1
# [3] = biological target: T3, human ULBP2 expressed on cells (human, UniProt Q9BZM5 26-217); assay: cell-based or functional assay
# T3 sequence (looked up): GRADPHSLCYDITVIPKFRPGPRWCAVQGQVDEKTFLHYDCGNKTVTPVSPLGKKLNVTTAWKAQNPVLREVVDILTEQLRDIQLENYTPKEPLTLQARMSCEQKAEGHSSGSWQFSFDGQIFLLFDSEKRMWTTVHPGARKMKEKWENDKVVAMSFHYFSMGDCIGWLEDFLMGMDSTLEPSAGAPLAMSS
# [4] = biological target: T2, cynomolgus MICA*08 over-expressed on …; assay: cell-based or functional assay
# [5] = biological target: human MICB*001 over-expressed on CT26.WT cells (human); assay: cell-based or functional assay
# [6] = biological target: T1, cynomolgus MICB*05 over-expressed on …; assay: cell-based or functional assay
# [7] = biological target: T4, human MICA*008 over-expressed on CT26.WT cells (human); assay: cell-based or functional assay
# T4 sequence (Q29983 whole entry, looked up): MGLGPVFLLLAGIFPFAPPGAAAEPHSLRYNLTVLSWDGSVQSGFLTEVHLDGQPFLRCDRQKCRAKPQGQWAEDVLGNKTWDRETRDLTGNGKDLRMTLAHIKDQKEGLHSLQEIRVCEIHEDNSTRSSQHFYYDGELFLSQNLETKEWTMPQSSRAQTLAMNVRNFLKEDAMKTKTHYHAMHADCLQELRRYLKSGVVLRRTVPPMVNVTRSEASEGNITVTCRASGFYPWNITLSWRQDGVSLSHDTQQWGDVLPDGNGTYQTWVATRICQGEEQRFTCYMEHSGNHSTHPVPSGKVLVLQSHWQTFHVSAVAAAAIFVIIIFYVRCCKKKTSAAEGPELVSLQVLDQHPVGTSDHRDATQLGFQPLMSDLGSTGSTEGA
# [8] = biological target: T5, human ULBP1 expressed on cells (human, UniProt Q9BZM6 26-216); assay: cell-based or functional assay
# T5 sequence (looked up): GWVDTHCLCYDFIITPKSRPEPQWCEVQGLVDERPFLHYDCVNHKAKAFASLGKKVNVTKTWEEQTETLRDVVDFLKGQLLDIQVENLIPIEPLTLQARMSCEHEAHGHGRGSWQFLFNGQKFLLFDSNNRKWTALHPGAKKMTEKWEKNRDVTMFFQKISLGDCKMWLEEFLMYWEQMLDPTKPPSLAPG
# [9] = biological target: T3, human ULBP2 expressed on cells; assay: cell-based or functional assay; remark: listed apart in the source
# [10] = biological target: T2, cynomolgus MICA*08 over-expressed on …; assay: cell-based or functional assay; remark: listed apart in the source
# [11] = biological target: human MICB*001 over-expressed on CT26.WT cells (human); assay: cell-based or functional assay; remark: listed apart in the source
# [12] = biological target: T1, cynomolgus MICB*05 over-expressed on …; assay: cell-based or functional assay; remark: listed apart in the source
# [13] = biological target: T4, human MICA*008 over-expressed on …; assay: cell-based or functional assay; remark: listed apart in the source
# [14] = biological target: T5, human ULBP1 expressed on cells; assay: cell-based or functional assay; remark: listed apart in the source
binder,measurement,setting,value
"HH8, hNKG2D(aa84-216)-RS(G3S)2-hNKG2D(aa84-216)-hFc1 (Fc fusion, Homodimer of two monomers joined through the Fc; also called NKG2D-Fc; HH8 with IgG1-Fc wt) NQEVQIPLTESYCGPCPKNWICYKNNCYQFFDESKNWYESQASCMSQNASLLKVYSKEDQDLLKLVKSYHWMGLVHIPTNGSWQWEDGSILSPNLLTIIEMQKGDCALYASSFKGYIENCSTPNTYICMQRTVRSGGGSGGGSNQEVQIPLTESYCGPCPKNWICYKNNCYQFFDESKNWYESQASCMSQNASLLKVYSKEDQDLLKLVKSYHWMGLVHIPTNGSWQWEDGSILSPNLLTIIEMQKGDCALYASSFKGYIENCSTPNTYICMQRTV[human IgG1 Fc left out here]",EC50,[1],3.05 µg/mL and 26.3 nM
same,EC50,[2],0.298 µg/mL and 2.57 nM
same,"ADCC EC50 (pM), FcγRIIIa reporter gene assay",[3],93 pM
same,"ADCC EC50 (pM), FcγRIIIa reporter gene assay",[4],18 pM
same,"ADCC EC50 (pM), FcγRIIIa reporter gene assay",[5],30 pM
same,"ADCC EC50 (pM), FcγRIIIa reporter gene assay",[6],1680 pM
same,"ADCC EC50 (pM), FcγRIIIa reporter gene assay",[7],30 pM
same,"ADCC EC50 (pM), FcγRIIIa reporter gene assay",[8],43 pM
same,"EC50 (ng/mL), hRGA killing (Human CD16 RGA)",[9],10 ng/mL
same,"EC50 (ng/mL), hRGA killing (Human CD16 RGA)",[10],2.1 ng/mL
same,"EC50 (ng/mL), hRGA killing (Human CD16 RGA)",[11],35 ng/mL
same,"EC50 (ng/mL), hRGA killing (Human CD16 RGA)",[12],194 ng/mL
same,"EC50 (ng/mL), hRGA killing (Human CD16 RGA)",[13],3.5 ng/mL
same,"EC50 (ng/mL), hRGA killing (Human CD16 RGA)",[14],5 ng/mL
